{
  "source": "the supplement of paper PMC11417369",
  "note": "Some of the results follow.",
  "data": [
    {"test_system": "PfHDP1 homeodomain (GST-tagged)", "test": "gcPBM binding intensity (ln(normalized median fluorescence intensity)); higher = stronger DNA binding", "procedure,_shortened": "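Probes on an Agilent 4 × 180k array were primer-extended, double-stranded and 36 bp long, taken from intergenic genomic regions, with negative controls added. GST-tagged P. falciparum DNA-binding domains from E. coli, about 25 μg on average, were applied to the array for 1 h in 1× PBS containing 1% milk, 0.2 mg/ml BSA, 0.5% salmon testes DNA and 0.03% Triton X-100. Binding intensity, obtained after Alexa488 anti-GST antibody detection and a 488 nm scan, is the highest Masliner-normalised natural-log median intensity across replicate spots of either probe orientation.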", "values": [
      {"sequence": "CCTATAAAACCATATACACACATATAAATAAAAAAA [CACACA_site7809]", "gcPBM binding intensity (ln)": 6.58},
      {"sequence": "AATTATACTCACGTTACACACACACTATAAATATAT [CACACA_site7863]", "gcPBM binding intensity (ln)": 7.63},
      {"sequence": "AAAAATTTGGCATACACACACACACGCACACGCACA [CACACA_site6422]", "gcPBM binding intensity (ln)": 7.37},
      {"sequence": "ATTAATATGAATAAAACACACATATATAACTTGTAA [CACACA_site6989]", "gcPBM binding intensity (ln)": 6.44},
      {"sequence": "AAAAAAAAATTAGGGGTGCCATTTGCTGCTGTGCTT [GTGCAC_site9913]", "gcPBM binding intensity (ln)": 6},
      {"sequence": "TTTTGTATTTCTCACACACACATAAGTAAACAATAA [CACACA_site5105]", "gcPBM binding intensity (ln)": 6.78},
      {"sequence": "TATATATGGGTACTAATTCCTTTAATTTCTTTAATT [CACACA_negctrl_site949]", "gcPBM binding intensity (ln)": 6.07},
      {"sequence": "TAGTAAAAGATATACACACACCAAAAAATATAATTA [CACACA_site7142]", "gcPBM binding intensity (ln)": 7},
      {"sequence": "AATTATATTCAAAATGGTACACACAATATTTAATTG [XGTACX_site5521]", "gcPBM binding intensity (ln)": 6.39},
      {"sequence": "TAAACAGACATATAAACACACATATAAACAGACATA [CACACA_site7214]", "gcPBM binding intensity (ln)": 6.85},
      {"sequence": "GTGTGGTGCTCGAGGAGTACAAACAATATGTAATTT [XGTACX_site4160]", "gcPBM binding intensity (ln)": 6.97},
      {"sequence": "TTTATTTTATAATTCACACATATATACCTATTTTAT [CACACA_site5709]", "gcPBM binding intensity (ln)": 6.47},
      {"sequence": "TTTTCTTCCTATTATTGTACATATAGTATTCTTTCA [XGTACX_site4428]", "gcPBM binding intensity (ln)": 7.39},
      {"sequence": "AATATAAGTAATTATACACACTTAATATTTATATAC [CACACA_site7334]", "gcPBM binding intensity (ln)": 6.34},
      {"sequence": "TAATAATAAACAACCACACACAAAAAAACAAAAAAA [CACACA_site3269]", "gcPBM binding intensity (ln)": 6.74},
      {"sequence": "ATTTAATTATGTAAGTGTACTTTGGAATATAATATT [XGTACX_site3186]", "gcPBM binding intensity (ln)": 6.34},
      {"sequence": "GTAGCACATATATATTGTACATAATATATACATTAT [XGTACX_site6354]", "gcPBM binding intensity (ln)": 6.76},
      {"sequence": "TTGGGTCAAACATAAACACACACAAAAAGAAAAAAT [CACACA_site8328]", "gcPBM binding intensity (ln)": 6.85},
      {"sequence": "TATTATATTAATGATGGTACAGTGTATATATATAAT [XGTACX_site1286]", "gcPBM binding intensity (ln)": 6.99},
      {"sequence": "TCATAGTATGGACACACACACACACCCATATATATA [CACACA_site5033]", "gcPBM binding intensity (ln)": 6.94},
      {"sequence": "TTTCCATATTTTTAAAGTACATATTTCCGTTTCCAC [XGTACX_site7832]", "gcPBM binding intensity (ln)": 6.26},
      {"sequence": "ACATATAATATAAAGTGTACAAGAAAATAAAAATAA [XGTACX_site1273]", "gcPBM binding intensity (ln)": 6.85},
      {"sequence": "GGGATATTTTAAAGGGTGCATATTATTAAAATAATG", "gcPBM binding intensity (ln)": 8.15},
      {"sequence": "TTATTTGATTACTTGCGTACTTATTTCATATTTTTT [XGTACX_site6648]", "gcPBM binding intensity (ln)": 6.72},
      {"sequence": "ATGAGAAAACATAAAAGTACAAAAAGAAAAAAAAAA [XGTACX_site6020]", "gcPBM binding intensity (ln)": 6.24},
      {"sequence": "AATTATTTCTTTTACACATGCAATATTTAATTAAAA [TGCATGCA_site598]", "gcPBM binding intensity (ln)": 7.06},
      {"sequence": "TTTAAATGCTTTTTGTGGTGACTTATCCTTTCATAA [XGTACX_negctrl_site109]", "gcPBM binding intensity (ln)": 6.61},
      {"sequence": "AATTTAAGCAGAACATATATATATATATATATAAAG [CACACA_negctrl_site769]", "gcPBM binding intensity (ln)": 7.12},
      {"sequence": "TATATGCTATAATATACACACATACCTATATTTATA [CACACA_site6383]", "gcPBM binding intensity (ln)": 7.13},
      {"sequence": "ACATATTAAAATATATGTACATAAAATATGAAAAAA [XGTACX_site5869]", "gcPBM binding intensity (ln)": 6.79},
      {"sequence": "ATATTTATTCCTTTTGGTACACAAAAAAAAAAAAAA [XGTACX_site8126]", "gcPBM binding intensity (ln)": 6.64},
      {"sequence": "TTAAAATTCAAAAAAAAAAATCAGAATATCAGAAAA [CACACA_negctrl_site1361]", "gcPBM binding intensity (ln)": 5.92},
      {"sequence": "TATATAACATAATATACACACATTATATGCGTAATT [CACACA_site6098]", "gcPBM binding intensity (ln)": 6.51},
      {"sequence": "ATTAAAGAAATATATACACACATTATGGGGGAATAA [CACACA_site178]", "gcPBM binding intensity (ln)": 7.28},
      {"sequence": "GATATATAAATAAATACACACATAAAATAGAAATAT [CACACA_site6881]", "gcPBM binding intensity (ln)": 6.81},
      {"sequence": "GTTAGGATAGATTAGACATGCACATAAATGCACTTC [TGCATGCA_site561]", "gcPBM binding intensity (ln)": 10.6},
      {"sequence": "TTTTTATAGAATTTAACACACATTTCATATAAAAAA [CACACA_site7453]", "gcPBM binding intensity (ln)": 6.25},
      {"sequence": "CATAATACAAATGTGATACCTGAAAATGACTTATTA [CACACA_negctrl_site994]", "gcPBM binding intensity (ln)": 6.09},
      {"sequence": "TTCTTTTTTGTAATAACACACACACTAACAGAAAAA [CACACA_site8646]", "gcPBM binding intensity (ln)": 7.01},
      {"sequence": "GAATTAATTTTAAAACGTACATGGGTGTATTTACAC [XGTACX_site5939]", "gcPBM binding intensity (ln)": 6.88},
      {"sequence": "TGCTACATAATATGTACACACATATACATATTTATA [CACACA_site6545]", "gcPBM binding intensity (ln)": 6.55},
      {"sequence": "TATCACATTTATGAGAGTACATAATTAATTCATGAT [XGTACX_site7850]", "gcPBM binding intensity (ln)": 6.1},
      {"sequence": "GTATGATTAAATAAAGGTACACTTATATTTATTTAT [XGTACX_site6966]", "gcPBM binding intensity (ln)": 6.21},
      {"sequence": "ATTGATACATCCAATACACACTACAGATAATGATGT [CACACA_site5098]", "gcPBM binding intensity (ln)": 6.58},
      {"sequence": "GTAATAAATTAAATATGTACATATTAAAATTAAGGA [XGTACX_site2290]", "gcPBM binding intensity (ln)": 6.52},
      {"sequence": "TTGGAATAATATAAATAAATAAATATATATATATAT [CACACA_negctrl_site900]", "gcPBM binding intensity (ln)": 8.97},
      {"sequence": "ATACAACAGATATATACACACATATAACAATAATAA [CACACA_site7560]", "gcPBM binding intensity (ln)": 6.76},
      {"sequence": "TTTCTTTTTGTTCGTGTACACACATGAAATTTATAA [CACACA_site8466]", "gcPBM binding intensity (ln)": 7.35},
      {"sequence": "AAAAAAAAAAAATGTGCACACGCGTACACCCAAAAA [CACACA_site8614]", "gcPBM binding intensity (ln)": 8.02},
      {"sequence": "CAATTTTTATGTGTGTGTACTCATTTGTTTTATAAA [XGTACX_site406]", "gcPBM binding intensity (ln)": 6.82},
      {"sequence": "TTTTATTTTATATAACAACAAAATGGAAATATATAT [GTGCAC_negctrl_site71]", "gcPBM binding intensity (ln)": 6.56},
      {"sequence": "ATATTATGAAGGGATATTTTCAAAAATATTAGGAGA [CACACA_negctrl_site942]", "gcPBM binding intensity (ln)": 6.73},
      {"sequence": "TAAATGAAAATAAATTAACACACAATTTTAATATTG [CACACA_site8360]", "gcPBM binding intensity (ln)": 5.92},
      {"sequence": "GTCAATATTTAGATATGTACTAAGGAGTGCTATATA [XGTACX_site222]", "gcPBM binding intensity (ln)": 6.39},
      {"sequence": "AATTATACATATATTTAACACACATTTTATAAAGTG [CACACA_site8362]", "gcPBM binding intensity (ln)": 6.45},
      {"sequence": "ATATATATATATAATTGTACATGTGTGTATAATTTG [XGTACX_site2417]", "gcPBM binding intensity (ln)": 8.92}
    ]}
  ]
}
